The structures appear in SMILES notation. About 120 (0.25%) of roughly 48,000 compounds were called active. Another 4% or so got no clear call; they are omitted. Calls follow the shape of the dose curve; as a rule, active = well fitted activation curve with a large enough effect; inconclusive = small, poorly fitted or top-dose-only effect, or another doubt; inactive = no such curve, though single readings can be large or run the other way. This is one part of the list.

The experiment in a line: Primary qHTS for Identification of Small Molecule Activators of Huntingtin-Antisense Promoter Activity. Also: nearly all actives have a fitted effect of over 55% in size. The conditions noted are these: HEK293 HTT-AS promoter firefly luciferase reporter, 24 h; series mostly up to 57.5 µM; activity change, positive = activation: at the top concentration. Summed up:
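HEK293 luciferase promoter-reporter cells (2,500/well) plated 24 h, then compounds added at up to 57.5 uM final for 24 h at 37 °C. Firefly luminescence by Dual-Glo, normalized to vehicle (0%) and zero RLU (-100%).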
A general note: qHTS replaces the single test concentration by a dilution series.
Regarding `CSc1ccc(CCNS(=O)(=O)c2cc(-c3cc(C)no3)ccc2C)cc1`, the “activity change, positive = activation” value was inactive: -26%.
For `Cc1ccc(NC(=O)CC2Sc3ccccc3NC2=O)c(C)c1` (stereo not drawn) the value was inactive: -19%.
For `CC1(C)OC(=O)NC1=O` the value was inactive: 1.6%; for `CCOC(=O)c1ccc(-c2ccc(/C=C(\C#N)C(=O)Nc3cccc(C)c3)o2)cc1`, inactive: 4.62%.
For `CN(N=O)C(=O)N[C@H]1C(O)OC(CO)[C@@H](O)[C@H]1O` (stereo partly drawn) the value was inactive: -13.4%; for `CCN(C(=O)c1cc(S(=O)(=O)N2CCCCC2)c[nH]1)c1ccc(OC)cc1`, inactive: -26.4%; for `CCOc1ccc(-n2c(-c3ccc(OC)cc3)cc3c2CC(C)(C)CC3=O)cc1`, inactive: -29.8%.
`C=Cc1ccc(CSc2nc(-c3ccc(Cl)cc3)nc3c2Cc2c(CO)cnc(C)c2O3)cc1`: the “activity change, positive = activation” value was inactive: -11.9%.
On to `COc1ccc(-c2cc(C(F)(F)F)nc(NCc3ccccc3)n2)cc1OC`, for which the “activity change, positive = activation” value is inactive: -30.6%.
For `COc1cccc(CN2c3ccccc3-c3nc(SCC(=O)Nc4cccc(C)c4)ncc3S2(=O)=O)c1` the value was inactive: -37.3%; for `CC1CCc2c(sc3nnn(CC(=O)Nc4cccc(C(F)(F)F)c4)c(=O)c23)C1` (stereo not drawn), inactive: -22.3%; for `CCN1C(C(=O)c2ccccc2)=C(OC(=O)c2ccc(Cl)cc2)c2ccccc2S1(=O)=O`, inactive: -31.7%.
For the compound `CCOc1ccc(Br)cc1C1C(C(=O)Nc2ccccc2OC)=C(C)Nc2nnnn21` (stereo not drawn), the activity change, positive = activation is inactive: 1.44% [at 11.5 µM, percent change from vehicle, -100% = no light].
For `Cc1cccc(OC(C)C(=O)N2CCC(c3nc4ccccc4o3)CC2)c1C` (stereo not drawn) the value was inactive: -20.9%; for `CCn1c(=O)c(=O)n(CC)c2cc(N3CCCCC3)c(NC(=O)c3cccc(OC)c3)cc21`, inactive: -11%; for `Cc1oc(-c2ccc(C(=O)N(C)Cc3ccccc3)cc2)nc1CN1CCc2ccccc21`, inactive: -52.1%.
As for `CCOC(=O)c1cccc(NC(=O)N2Cc3ccccc3Oc3ncccc32)c1`, the figure is inactive: -26.8%.
For `CC(=O)N1c2ccc(S(=O)(=O)NCCc3cccc(C)c3)cc2CC1C` (stereo not drawn) the value was inactive: -25.5%; for `COc1ccc(N2CCN(CC(O)COc3ccc(C)c(C)c3)CC2)cc1` (stereo not drawn), inactive: 0%.
As to `CCOc1cccc(NC(=O)CSc2ncc(-c3ccc(Cl)cc3)[nH]2)c1`, the “activity change, positive = activation” value is inactive: -9.3%.
For `COc1ccc(-n2c(=O)c3c4c(sc3n(Cc3ccccc3)c2=O)CCC4)c(OC)c1` the value was inactive: -18.7%; for `Cc1ccc(OCCSc2nc3ccccc3n2CCC(=O)O)cc1C`, inactive: -13.5%; for `CCOc1ccc(NC(=O)NC(CC)Cn2nnc3ccccc3c2=O)cc1` (stereo not drawn), inactive: -9.34%.
As for `COc1ccc(/C=C(\NC(=O)c2ccccc2)C(=O)NC2CCCCC2)cc1`, the figure is inactive: -9.06%; as for `CCN1CCN(C(c2ccc(Cl)cc2)c2c(O)cc(C)n(CCOC)c2=O)CC1` (stereo not drawn), inactive: -15.9%.
Turning to `O=C(CSc1ncc(S(=O)(=O)c2ccc(Br)cc2)c(=O)[nH]1)NCc1ccccc1Cl`, the “activity change, positive = activation” value was inactive: -6.26%.
As for `Cc1nc2ncnn2c(C)c1CCC(=O)NCc1ccc(Cl)cc1`, the figure is inactive: -11.9%; as for `COc1ccc(-c2cc(C(=O)Oc3ccc(Cl)cc3)c3ccccc3n2)cc1`, inactive: 10.3%.
As for `CCCCn1cnc2cc(NC(=O)c3cc(OC)c(OC)c(OC)c3)ccc21`, the figure is inactive: -18.5%; as for `Cc1cc(C)cc(N(CC(=O)Nc2ccc(C(F)(F)F)cc2)S(=O)(=O)c2c(C)[nH]c(=O)[nH]c2=O)c1`, inactive: -19.6%; as for `COc1cc(Cl)c(C)cc1NC(=O)CSCc1nc(-c2ccc(OC)c(OC)c2)no1`, inactive: -22.2%.
For `Cc1ccc(C)c(Cn2cc(CCC(=O)NC3CCCCC3)c3ccccc32)c1` the value was inactive: -3.57%; for `Cc1cccc(C)c1NC(=O)C1CCN(S(=O)(=O)c2cccc3nsnc23)CC1`, inactive: -12.7%; for `Cc1ccc(NC(=O)Cn2ccn(Cc3ccc(Cl)cc3)c(=O)c2=O)cc1C`, inactive: -4.66%.
Consider `CCOC(=O)C1CCN(C(=O)c2ccc3c(c2)sc2nc(-c4ccc(OCC)cc4)cn23)CC1`, for which the “activity change, positive = activation” value is inactive: -25.8%.
For `COc1ccc(-c2nc(SCC(=O)NC3CCCC3)c(-c3ccccc3)[nH]2)cc1OC` the value was inactive: -5.04%; for `CC(=O)c1cccc(-n2c(CCC(=O)O)ccc2-c2ccccc2)c1`, inactive: 5.79%.
As for `COc1ccc(OC)c(Nc2cc(C(=O)NCc3ccccc3)c3ccccc3n2)c1`, the figure is inactive: -25.4%; as for `CCOc1ccccc1C(=O)N1CCc2cc(OC)c(OC)cc2C1COc1ccc2c(C)cc(=O)oc2c1` (stereo not drawn), inactive: -4.26%; as for `COc1ccc(CNC(=O)c2cnn(-c3ccc(C)cc3)c2C2CCN(C(=O)OC(C)(C)C)CC2)cc1`, inactive: -35.7%.
As for `Fc1ccc(-c2nnc(CN3CCN(c4ccccn4)CC3)o2)cc1`, the figure is inactive: -1.34%; as for `COc1ccc(C(=O)c2cn(Cc3ccc(F)cc3)c3c(F)cc(F)cc3c2=O)cc1`, inactive: -20.2%; as for `O=C(C1COc2cc(S(=O)(=O)Nc3ccc(Cl)cc3)ccc2O1)N1CCCC1` (stereo not drawn), inactive: -29.4%.
Consider `CCc1ccccc1N(C)C(=O)c1cc2c(s1)-c1c(C)cccc1OC2`, for which the “activity change, positive = activation” value was inactive: -7.67%.
As for `Cc1ccc(Cn2c(C)c(CNCc3ccccc3F)c(C(=O)O)c2C)cc1`, the figure is inactive: -10%; as for `O=C(Cn1ncc2c3ccccc3n(Cc3ccccc3)c2c1=O)NCc1ccccc1`, inactive: -13.3%.
As for `CC(C)NS(=O)(=O)c1ccc(OCC(=O)N2CCN(c3cccc(Cl)c3)CC2)cc1`, the figure is inactive: -44.4%; as for `COc1cc(C2C(C(=O)Nc3ccccc3)=C(C)Nc3nc(SCC(=O)c4ccc(C)cc4)nn32)ccc1O` (stereo not drawn), inactive: 2.24%.

Values taken from PubChem BioAssay AID1508624 (National Center for Advancing Translational Sciences (NCATS), 2021).
